Screen size: about 420,000 compounds; about 50,000 (12%) were called active. This list was built around the results that the source calls inconclusive (neither active nor inactive); the mix of calls is not that of the screen. Calls follow the shape of the dose curve; as a rule, active = well fitted inhibition curve with a large enough effect; inconclusive = small, poorly fitted or top-dose-only effect; inactive = flat fitted curve, though single readings scatter. No potency is given beside an inconclusive call; the fits are too rough.
Experiment: qHTS for Inhibitors of human tyrosyl-DNA phosphodiesterase 1 (TDP1): qHTS in cells in presence of CPT; also: nearly all actives have a fitted effect of over 55% in size
Conditions: chicken DT40 Tdp1-/-;hTDP1 cells + 20 nM CPT, ATP luminescence, 48 h; activity change, negative = growth inhibition: at 46.2 µM (top of the series) unless noted
Outline: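 Chicken DT40 Tdp1-/- cells stably complemented with human TDP1 were seeded at 400 cells/well in medium containing 20 nM camptothecin, exposed to pin-transferred compounds, and grown at 37 °C for at least 48 hr. Viability was read as ATP luminescence.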
% is scaled to controls: 0 for no effect and ±100 for the full control effect; potency is read from the fitted curve at half-maximal effect; tags tell the direction and shape of the fitted curve.

Compound | Potency | activity change, negative = growth inhibition
CC1CCCC(NC(=O)COC(=O)COc2ccc(Br)cc2)C1C (stereo unspecified) | inactive | –
CC(C)CC(C(=O)NCC1CCCO1)N(C(=O)Cn1nnc(-c2ccc(F)cc2)n1)c1cccc(C(F)(F)F)c1 (stereo unspecified) | inconclusive [inhibitor, single point] | –
C=CCNC(=O)NC(=O)CN1C(=O)NC(c2ccccc2)(c2ccccc2)C1=O | inconclusive [inhibitor, single point] | –
COC(=O)c1c[nH]n2c(=O)cc(CCl)nc12 | inactive | –
Cc1ccc(C23CC4CC(CC(CC(=O)N5CCOCC5)(C4)C2)C3)cc1 | inconclusive [inhibitor, single point] | –
CCOC(=O)c1cccc(NC(=O)Cn2c(=O)nc(-c3ccccc3F)c3cc(Cl)ccc32)c1 | inconclusive [inhibitor, single point] | –
CC(C)C(=O)NCCc1nc(-c2ccc(Cl)cc2)no1 | inactive | –
O=C1NC[C@@H](CCCCN2C[C@H](Cc3ccccc3)N(CCC3CCCCC3)C(=O)C2=O)N(Cc2ccccc2)C1=O | inconclusive [inhibitor, single point] | –
CCCn1c(=O)c(C(=O)Nc2ccccc2C(=O)OCC)c(O)c2ccccc21 | inconclusive [inhibitor, single point] | –
COC(=O)c1c(N)sc(C(=O)NCCc2ccccc2)c1C | inconclusive [inhibitor, partial curve, poor fit] | –
NC(=O)COC(=O)c1sc2ccccc2c1Cl | inactive | –
OC(CNCc1ccccc1Cl)COc1ccc(F)cc1 (stereo unspecified) | – | inconclusive: -33.3% [inhibitor]
CCOC(=O)C1=C(Nc2ccccc2)CC(C)(O)C(C(=O)OCC)C1c1ccccc1 (stereo unspecified) | inactive | –
Cc1ccc2[nH]c3c(c2c1)CN(C(=O)CN1CCCc2ccccc21)CC3 | active: 23.1 µM | –
Cc1ccc(CNC(=O)CNC(=S)N(Cc2ccccc2)Cc2cccnc2)cc1 | inconclusive [inhibitor, single point] | –
CC(=O)c1ccc2c(c1)Nc1ccccc1S2 | inactive | –
Cc1ccc(CNc2ncnc3c2nc2n3CCCC2)cc1 | inconclusive [inhibitor, single point] | –
CCOC(=O)c1ccc(NC(=O)CN2c3ccccc3S(=O)(=O)c3ccccc32)cc1 | inconclusive [inhibitor, single point] | –
CC1CCN(CC(O)COC2CC(C)CCC2C(C)C)CC1 (stereo unspecified) | inconclusive [inhibitor, single point] | –
COc1ccc(CC(=O)N2CCN(S(=O)(=O)c3cccs3)CC2)cc1OC | inactive | –
COc1cc(OC)c(-c2sc(Nc3ccccc3)n[n+]2-c2ccc(F)cc2)cc1OC | inconclusive [inhibitor, full curve, poor fit] | –
CC1CCCCC1NC(=O)CCc1nc2sc3c(c2c(=O)[nH]1)CCCC3 (stereo unspecified) | inconclusive [inhibitor, partial curve, poor fit] | –

Compound | Potency | activity change, negative = growth inhibition
O=C(Cn1c(=O)n2ncnc2c2c3c(sc21)CCCC3)c1ccccc1 | active: 23.1 µM | –
CCOC(=O)c1cc(-c2ccccc2)n(CCC(=O)NC2CCCCC2)c1C | inconclusive [inhibitor, single point] | –
COc1cc(NC(=S)NCC2CCCO2)c(OC)cc1Cl (stereo unspecified) | inactive | –
Cc1cccc(CN2CCN(C3CN(Cc4cn(Cc5ccccc5)nn4)S(=O)(=O)C3)CC2)c1 (stereo unspecified) | inconclusive [inhibitor, single point] | –
COc1ccc(C#Cc2cnc3c(c2)C(=O)N([C@H](C)CO)C[C@@H](C)[C@H](CN(C)C(=O)CN(C)C)O3)cc1 | inactive | –
CCN(C(=O)CSc1nc2ccccc2n1CC(=O)NCc1ccc(OC)cc1)c1ccccc1 | inconclusive [inhibitor, single point] | –
CNC(=O)/C(C#N)=C/c1c(N2CCN(c3ccccc3)CC2)nc2c(C)cccn2c1=O | inconclusive [inhibitor, single point] | –
COc1cccc(C=NN(C)c2c([N+](=O)[O-])cc(C(F)(F)F)cc2[N+](=O)[O-])c1O | inconclusive [inhibitor, single point] | –
CC#CCN(Cc1ccco1)C(=O)c1ccc(OC2CCN(Cc3ccccn3)CC2)cc1 | inconclusive [inhibitor, single point] | –
CC(=O)N1N=C(c2ccc(Br)cc2)CC1c1cn(C)c2ccccc12 (stereo unspecified) | inconclusive [inhibitor, single point] | –
O=C(OC(C(=O)NC1CCCC1)c1ccc(F)cc1)c1ccno1 (stereo unspecified) | inconclusive [inhibitor, single point] | –
COc1ccc(-c2cc(-c3ccc(C)cc3)nc(SCc3nnc(-c4ccccc4)o3)c2C#N)cc1OC | inconclusive [inhibitor, partial curve] | –
COc1ccc(-c2ccc(C(C)=O)cc2)cc1[C@H]1[C@@H]2C=CCC[C@@]2(C)C(=O)N1Cc1ccccc1 | inconclusive [inhibitor, single point] | –
Cc1ccc2ccccc2c1C(O)c1ncc(-c2ccc(C(F)(F)F)cc2)[nH]1 (stereo unspecified) | inconclusive [inhibitor, single point] | –
CCOc1ccc2c(c1)C(c1ccc(C)cc1)=NNC(c1ccc(C)cc1)=N2 | inconclusive [inhibitor, single point] | –
CCN(C(=O)CSc1n[nH]c(-c2ccc(OC)cc2)n1)c1c(N)n(Cc2ccccc2)c(=O)[nH]c1=O | inactive | –
CCOC(=O)N1CCC(NC(=O)c2ccc3c(c2)N(Cc2ccc(C)cc2)CCS3)CC1 | active: 20.6 µM | –
C[C@H](NC(=O)c1ccccc1Cl)C(=O)Nc1ccccc1F | – | inconclusive: 1.69% [inhibitor]
CC1CC(C)CN(S(=O)(=O)c2ccc(C(=O)Nc3sccc3C(N)=O)cc2)C1 (stereo unspecified) | active: 18.4 µM | –
CCOC(=O)C1=C(C)C(c2ccc(OC)cc2)NC(=S)N1 (stereo unspecified) | active: 20.6 µM | –
COc1cc2c(cc1OC)C1=C(C#N)CCC(=NC(=O)c3ccco3)N1CC2 | inactive | –
O=C(NCCN1CCOCC1)c1ccc(CSCc2cccc(Cl)c2)o1 | inconclusive [inhibitor, single point] | –

Compound | Potency | activity change, negative = growth inhibition
CN(C)c1ccc(-c2nc(N3CCNCC3)c3ccccc3n2)cc1 | inconclusive [inhibitor, single point] | –
O=C(CCc1ccccc1)NC1(Cc2ccccc2)CCN(CCCc2ccccc2)C1=O (stereo unspecified) | active: 16.4 µM | –
COc1ccc(-c2noc(CSc3nc4sc(C)c(C)c4c(=O)n3-c3ccccc3)n2)cc1OC | inconclusive [inhibitor, single point] | –
COc1cc(C(=O)N(CCN(C)C)CC2CCCN(Cc3ccccc3F)C2)ccc1C (stereo unspecified) | inconclusive [inhibitor, partial curve, poor fit] | –
CCC(C)(C)NC(=O)C(c1ccc(OC)cc1)N(C(=O)CCC(=O)Nc1cc(C)on1)c1cccc(F)c1 (stereo unspecified) | inconclusive [inhibitor, partial curve] | –
Brc1cccc(Nc2nc(-c3cccnc3)cs2)c1 | inconclusive [inhibitor, single point] | –
COc1ccc(NC(=O)CC2C(=O)N(c3ccc(F)cc3)C(=O)N2Cc2ccc3c(c2)OCO3)cc1 (stereo unspecified) | inactive | –
O=C(Nc1ccc(F)c(F)c1)c1ccc(-n2cncn2)c([N+](=O)[O-])c1 | active: 8.2 µM | –
COc1ccc(-c2c(C)nn3c(N4CCN(c5ccccc5)CC4)cc(C)nc23)cc1OC | inconclusive [inhibitor, partial curve] | –
C(=C\N1CCCCCC1)/c1nnnn1-c1ccc(-c2ccccc2)cc1 | inconclusive [inhibitor, single point] | –
Cc1ccc(C(=O)C2CCN(CC(=O)NC3CCCC3)CC2)cc1 | inactive | –
CC(C)=C1SC(N2CCN(c3cccc(C(F)(F)F)c3)CC2)=NC1=O | inconclusive [inhibitor, partial curve, poor fit] | –
O=C(O)c1cn(-c2ccc(N3CCCC3)c(F)c2)c2c(F)c(F)c(F)cc2c1=O | inconclusive [inhibitor, partial curve, poor fit] | –
COc1cc2[nH]cc(C(=O)NCc3ccccc3)c(=O)c2cc1OC | inconclusive [inhibitor, single point] | –
O=C1/C(=C/c2ccccc2F)SC(=S)N1CCC(=O)N1CCCCC1CCO (stereo unspecified) | inconclusive [inhibitor, single point] | –
CCC(C)c1ccc(O)c(NC(=O)c2cccnc2)c1 (stereo unspecified) | inconclusive [inhibitor, single point] | –
O=C(NC(=S)N1CCN(c2ccc([N+](=O)[O-])cc2)CC1)c1ccccc1F | inconclusive [inhibitor, single point] | –
COc1ccc(C(=O)C2CCN(CC(=O)Nc3ccc(OC)cc3OC)CC2)cc1 | inconclusive [inhibitor, partial curve] | –
COc1ccc(/C=C(/C#N)c2nc(-c3ccc(-c4ccccc4)cc3)cs2)cc1OC | inconclusive [inhibitor, single point] | –
O=C(c1ccco1)N1C(=O)c2cccc3cccc1c23 | active: 11.6 µM | –
CCCCn1c(N)c(N(CCOC)C(=O)c2cc(C)oc2C)c(=O)[nH]c1=O | inactive | –
CCCCC(=O)Nc1nc(C)c(C(C)=O)s1 | inconclusive [inhibitor, single point] | –
